Measurements from patent US20260053122A1 (JASPER THERAPEUTICS, published 2026).

Target: T1, human stem cell factor (SCF) (human, UniProt P21583 partial chain, limits assumed)
T1 construct: also called hSCF; human SCF
Assay: inferred from SCF-induced proliferation and survival of transfected Ba/F3 cells (Example 1)
Procedure: Stably transfected Ba/F3 cells were starved overnight and were stimulated with various concentrations of mouse or human SCF (stem cell factor) for 4 days. Cell survival was assessed by DAPI exclusion flow cytometry. Cell proliferation was assessed by EdU flow cytometry.

B1: chimeric c-KIT protein (mSP-hEC-mTM-mIC) (receptor)
chain: [sequence of about 500 residues omitted]LLIGFVVAAGAMGIIVMVLTYKYLQKPMYEVQWKVVEEINGNNYVYIDPTQLPYDHKWEFPRNRLSFGKTLGAGAFGKVVEATAYGLIKSDAAMTVAVKMLKPSAHLTEREALMSELKVLSYLGNHMNIVNLLGACTVGGPTLVITEYCCYGDLLNFLRRKRDSFIFSKQEEQAEAALYKNLLHSTEPSCDSSNEYMDMKPGVSYVVPTKTDKRRSARIDSYIERDVTPAIMEDDELALDLDDLLSFSYQVAKGMAFLASKNCIHRDLAARNILLTHGRITKICDFGLARDIRNDSNYVVKGNARLPVKWMAPESIFSCVYTFESDVWSYGIFLWELFSLGSSPYPGMPVDSKFYKMIKEGFRMVSPEHAPAEMYDVMKTCWDADPLKRPTFKQVVQLIEKQISDSTKHIYSNLANCNPNPENPVVVDHSVRVNSVGSSASSTQPLLVHEDA
notes: The signal peptide is left out here; also called chimeric human/mouse c-KIT; hmCD117
binding result: binds
